Results: the GPR68 mutational scans of Howard et al. (2025)

B1: GPR68, Q15743 (parent)
chain: MGNITADNSSMSCTIDHTIHQTLAPVVYVTVLVVGFPANCLSLYFGYLQIKARNELGVYLCNLTVADLFYICSLPFWLQYVLQHDNWSHGDLSCQVCGILLYENIYISVGFLCCISVDRYLAVAHPFRFHQFRTLKAAVGVSVVIWAKELLTSIYFLMHEEVIEDENQHRVCFEHYPIQAWQRAINYYRFLVGFLFPICLLLASYQGILRAVRRSHGTQKSRKDQIQRLVLSTVVIFLACFLPYHVLLLVRSVWEASCDFAKGVFNAYHFSLLLTSFNCVADPVLYCFVSETTHRDLARLRGACLAFLTCSRTGRAREAYPLGAPEASGKSGAQGEEPELLTKLHPAFQTPNSPGSGGFPTGRLA

Legend:
[1] = variants of: B1; assay: cAMP reporter score (Enrich2 score, wild type = 0); higher = more signal; HEK293T, FACS bins
[2] = variants of: B1; assay: surface expression score (Enrich2 score, wild type = 0); higher = more signal; HEK293T, FACS bins

| Variant | cAMP reporter score ([1]; pH 5.5) | cAMP reporter score ([1]; pH 6) | cAMP reporter score ([1]; pH 6, modulator: ogerin) | surface expression score [2] | cAMP reporter score ([1]; pH 6.5, modulator: ogerin) |
| --- | --- | --- | --- | --- | --- |
| P177S | -1.02 | -1.58 | -1.41 | -0.897 |  |
| P177Y | -0.84 | -1.76 | -2.78 |  | -1.53 |
| P177V | -0.254 |  | -0.661 | -1.33 | -0.698 |
| P177N | -1.61 | -1.13 | -2.55 | -0.241 | -1.59 |
| P177G | -1.92 |  | -1.22 | -1.49 | -1.14 |
| P177T | -1.55 |  |  | -0.474 | 0.205 |
| R170_V171insGS | -0.784 | -1.25 | -1.36 | 0.524 | -1.77 |
| V171_C172insGS | -1.71 | -1.2 | -2.16 | -0.145 | -1.05 |
| E161_V162insGS | 0.282 | -0.1 | -0.155 | 0.075 | -0.724 |
| I163_E164insGSG | -1.75 | -1.68 | -0.153 | 0.585 | -0.142 |
| Q179A | -0.932 | 0.216 | -0.64 | -0.084 | 0.501 |
| Q179C | 0.397 | -0.545 | -0.346 | -0.327 | -1.25 |
| I178_Q179insGSG | -1.57 | -0.242 | -1.92 | -1.94 | -1.65 |
| Y176R | -1.62 | -1.34 | -1.92 | -0.853 | -1.19 |
| Y176S | -1.11 | -1.58 | -0.86 | -0.622 | -0.936 |
| Y176C | -0.684 | -0.225 | -0.95 | -0.951 | -0.718 |
| Y176Q | -0.638 |  |  | -0.405 | -1.33 |
| Y176W | 0.245 |  | 1.25 |  | 0.653 |
| Y176E | -1.21 | -1.45 |  | -0.704 | -0.651 |
| Y176L | -0.717 |  |  | -0.606 | -1.74 |
| Y176G | -0.851 | -0.736 | -1.43 | -0.265 | -0.865 |
| Y176I | 1.22 | 0.135 | 0.523 |  | 0.242 |

| Variant | cAMP reporter score ([1]; pH 5.5) | cAMP reporter score ([1]; pH 6) | cAMP reporter score ([1]; pH 6, modulator: ogerin) | surface expression score [2] | cAMP reporter score ([1]; pH 6.5, modulator: ogerin) |
| --- | --- | --- | --- | --- | --- |
| Y176M | -1.18 | -1.05 | -0.962 | 0.45 | -1.44 |
| Y176F | 0.469 | -0.518 | -0.128 | 1.33 | -1.16 |
| Y176A | -0.192 |  | -1.1 | 0.068 | -1.14 |
| Y176T | -0.832 | -1.57 | -1.31 | -0.804 | -1 |
| Y176N | -1.4 |  |  | -0.9 | -2.35 |
| Y176H | -0.182 | -0.25 | -0.478 | -0.363 | -0.387 |
| Y176P | -1.64 | -1.41 |  | -1.59 | -0.795 |
| V171del | -1.08 |  | -1.5 | 0.059 | -1.06 |
| E174del | -1.57 | -0.586 | -1.49 | -0.882 | -0.722 |
| E174_H175insGSG | -1.86 | -1.98 | -1.9 | -0.296 | -1.98 |
| H169_R170del | -1.55 | -1.07 | -1.92 | -0.354 | -2.04 |
| E166del | -0.644 |  | -1.08 | -0.287 | -0.055 |
| I178_A180del | -1.11 | -1.59 | -1.65 | -3.14 | -1.59 |
| Y176_I178del | -1.41 | -0.563 | -2.4 | -2.62 | -1.97 |
| Q168_H169insGS | -1.07 | -1.02 | -1.3 | 0.796 | -1.83 |
| I163_D165del | -1.46 | -0.761 | -1.69 | 0.699 | -1.03 |
| Q168_H169insGSG | -1.05 | -0.85 | -1.42 | 0.156 | -0.91 |
| V171_F173del | -0.537 | -0.237 | -0.807 | -1.46 | -0.891 |
| V171_C172insGSG | -1.17 | -0.779 | -0.414 | -0.666 | -1.11 |
| N167_Q168insGS | -1.29 | -1.35 | -1.8 | 0.736 | -1.75 |
| H175del | -1.63 | -0.496 | -1.57 | -0.796 | -0.573 |
| R170W | -0.404 | -0.408 | -1.18 | 0.082 | -1.96 |

| Variant | cAMP reporter score ([1]; pH 5.5) | cAMP reporter score ([1]; pH 6) | cAMP reporter score ([1]; pH 6, modulator: ogerin) | surface expression score [2] | cAMP reporter score ([1]; pH 6.5, modulator: ogerin) |
| --- | --- | --- | --- | --- | --- |
| R170G | -1.68 | -0.614 | -1.45 | -0.144 | -0.996 |
| R170E | -1.13 | -1.12 |  | 0.107 | 0.295 |
| R170I | -0.858 | -0.804 | -0.743 | -0.424 | -1.06 |
| R170D | -2.85 | -1.73 |  | -0.34 | -0.668 |
| R170K | -0.795 | -0.946 | -0.807 | -0.983 | -1.11 |
| R170F | -1.24 | -2.01 | -0.205 | -0.765 | -0.733 |
| R170H | 0.223 | -0.556 | -0.37 | 0.377 | -1.44 |
| R170L | 0.236 | -0.572 | -0.369 | 1.14 | 0.014 |
| R170P | -1.74 | -0.693 | -1.53 | 0.389 | -1.14 |
| R170N | -0.163 | -0.446 | 0.261 | 0.042 | -1.21 |
| R170Y | -0.092 | -1.6 | -0.862 | 0.212 | -1.29 |
| R170S | -1.29 | -1.41 | -2.1 | -0.213 | -1.31 |
| R170Q | -0.969 | -1.92 | -1.04 | 0.965 | -1.15 |
| R170V | 0.336 |  | 0.022 | 0.127 | -1.25 |
| R170A | -0.87 |  |  | 0.264 | -2.07 |
| R170C | -2.03 |  | -0.677 | 1.53 | -0.437 |
| R170M | -0.544 | -0.459 | -0.671 | -1.08 | -0.464 |
| C172_F173insGSG | -1.55 | -1.31 | -1.86 | -0.18 | -1.04 |
| Y176_P177insGSG | -1.38 | -1.26 | -1.65 | -1.71 | -0.943 |
| E174_H175insG | -0.899 | -1.18 | -0.607 | -0.29 |  |

Scores whose standard error is large were omitted. Two further conditions of the source, in which the scores hardly spread, are not listed. Read del as a deletion of the residues named and ins as an insertion between two positions. For some assays here: The data file names ogerin without a concentration.
